Here are results for 36 molecules from the supplement of paper PMC9135407.

The test system of the experiment is primary human hepatic stellate cells (donor 1). The experiment is described as follows: scaled lipid accumulation score (0 = DMSO-like, 1 = nortriptyline-like); higher = stronger HSC inactivation (lipid re-accumulation), active = hit call of the paper. As to conditions: 48 h.
Where [1] appears, read: library stock concentration: 10 mM.
[2] abbreviates: library stock concentration: 400 uM.
The mark [3] stands for this setting: library stock concentration: 2 mM.
Setting [4] is: library stock concentration: 3.33 mM.
[5] abbreviates: library stock concentration: 80 uM.

Where “and” joins values, the source holds several entries; their conditions need not be identical. Equal values may be shown once. Where a name gives a salt, the structure may show the parent alone. The whole screen tested about 5,800 compounds, of which about 620 (11%) showed activity.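 The calls were made as follows: active = score above a cut-off or among the top three wells of a plate; in these data no inactive exceeds 0.85.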 Only a part is listed here, and it is no random draw. A value given as a limit tells only on which side of the number the result lay.

Consider `CC1=C(C(=O)O)N2C(=O)[C@@H](NC(=O)[C@H](N)c3ccc(O)cc3)[C@H]2SC1` [Cefadroxil], for which the “scaled lipid accumulation score” value is inactive: ≤ 0. For the same molecule, the “scaled lipid accumulation score” value under setting [1] is inactive: ≤ 0. `Nc1nc(Nc2ccc(S(N)(=O)=O)cc2)nn1C(=O)c1c(F)cccc1F`: the “scaled lipid accumulation score” value under setting [2] was inactive: ≤ -0.005; the “scaled lipid accumulation score” value under setting [3] was inactive: ≤ -0.005; the “scaled lipid accumulation score” value under setting [4] was inactive: 0.046; the “scaled lipid accumulation score” value under setting [1] was inactive: ≤ 0 and inactive: ≤ -0.005. As to `CC(C)c1onc(-c2c(Cl)cccc2Cl)c1COc1ccc(/C=C/c2cccc(C(=O)O)c2)c(Cl)c1`, the “scaled lipid accumulation score” value reads like this: under setting [4], inactive: ≤ 0; under setting [1], inactive: ≤ 0 and inactive: 0.025. As for `C[C@@]1(O)[C@H](O)[C@@H](CO)O[C@H]1n1cnc2c(NC3CCCC3)nc(Cl)nc21`, the “scaled lipid accumulation score” value under setting [1] was inactive: 0.013. Turning to `C=CCN1CCCC1CNC(=O)c1cc2nn[nH]c2cc1OC` (stereo unspecified) [Alizapride HCl], the “scaled lipid accumulation score” value was inactive: ≤ 0. The “scaled lipid accumulation score” value under setting [4] was inactive: ≤ 0. The “scaled lipid accumulation score” value under setting [1] is inactive: ≤ -0.001.

Consider `CC(C)N(CCCNC(=O)Nc1ccc(C(C)(C)C)cc1)C[C@H]1O[C@@H](n2cc(Br)c3c(N)ncnc32)[C@H](O)[C@@H]1O`, for which the “scaled lipid accumulation score” value under setting [1] was active: 1.12.

With `NC(=O)C1(N2CCCCC2)CCN(CCCC(=O)c2ccc(F)cc2)CC1`, the “scaled lipid accumulation score” value under setting [1] was inactive: ≤ 0. As for `CNC1(C)C2CCC(C2)C1(C)C` (stereo unspecified) [Mecamylamine hydrochloride], the “scaled lipid accumulation score” value was inactive: 0.017. In addition, the “scaled lipid accumulation score” value under setting [1] is inactive: 0.459. Take `CNC1(C)C2CCC(C2)C1(C)C` (stereo unspecified) [Mecamylamine HCl]: the “scaled lipid accumulation score” value (library stock concentration: 12 mM) was inactive: ≤ -0.006. Turning to `Cc1c(Cn2c(C)nc3c(C(=O)O)cc(N4CCOCC4)cc32)cccc1C(F)(F)F`, the “scaled lipid accumulation score” value under setting [5] was inactive: ≤ 0; the “scaled lipid accumulation score” value under setting [2] is inactive: 0.007; the “scaled lipid accumulation score” value under setting [3] was inactive: ≤ 0; the “scaled lipid accumulation score” value under setting [4] is inactive: ≤ -0.009; the “scaled lipid accumulation score” value under setting [1] was inactive: 0.228 and inactive: ≤ 0. Take `CCCCCCCCCCCCCCCC[N+](C)(C)C` [Cetrimonium bromide]: the “scaled lipid accumulation score” value under setting [1] was inactive: 0.737.

As for `CCCCCCCCCCCCCCCC[N+](C)(C)C` [Cetrimonium Bromide (CTAB)], the “scaled lipid accumulation score” value under setting [4] was inactive: ≤ 0 and the “scaled lipid accumulation score” value under setting [1] is inactive: 0.624. With `O=C(NCc1ccc(Oc2ccccc2)cc1)c1nc(-c2cc(Br)c(O)c(Br)c2)no1`, the “scaled lipid accumulation score” value by setting is: under setting [4], inactive: ≤ -0.009; under setting [1], inactive: ≤ 0. Consider `CC(=C(CCO)SSCC1CCCO1)N(C=O)Cc1cnc(C)nc1N` (stereo in doubt) [Fursultiamine Hydrochloride], for which the “scaled lipid accumulation score” value was inactive: ≤ 0. `C[C@@H]1CC2C3C[C@H](F)C4=CC(=O)C=C[C@]4(C)[C@@]3(F)[C@@H](O)C[C@]2(C)[C@@]1(O)C(=O)COC(=O)C(C)(C)C` (stereo partly specified) [Flumethazone pivalate]: the “scaled lipid accumulation score” value reads like this: (library stock concentration: 4 mM) inactive: 0.012; under setting [1], inactive: ≤ 0. For the molecule `CCC(C)(CN(C)C)OC(=O)c1ccccc1` (stereo unspecified) [Amyleine hydrochloride], the “scaled lipid accumulation score” value was inactive: 0.054. Regarding `O=C(O)C=CC(=O)O.OCCOCCN1CCN(C2=Nc3ccccc3Sc3ccccc32)CC1.OCCOCCN1CCN(C2=Nc3ccccc3Sc3ccccc32)CC1` [Quetiapine Fumarate], under setting [1], the “scaled lipid accumulation score” value was active: 1.06.

As to `O=C(/C=C/c1ccc(/C=C/C(=O)Nc2ccc(C3=NCCN3)cc2)cc1)Nc1ccc(C2=NCCN2)cc1` [GW 4869 (hydrochloride hydrate)], the “scaled lipid accumulation score” value (library stock concentration: 1 mM) is inactive: 0.115. On to `C=C(NC(=O)C(=C)NC(=O)c1csc(C2=N[C@@H]3c4csc(n4)[C@H]4NC(=O)c5csc(n5)[C@H]([C@](C)(O)[C@@H](C)O)NC(=O)[C@H]5CSC(=N5)/C(=C/C)NC(=O)[C@H]([C@@H](C)O)NC(=O)c5csc(n5)[C@]3(CC2)NC(=O)[C@H](C)NC(=O)C(=C)NC(=O)[C@H](C)NC(=O)[C@H]([C@@H](C)CC)N[C@@H]2C=Cc3c([C@H](C)O)cc(nc3[C@H]2O)C(=O)O[C@@H]4C)n1)C(N)=O` [Thiostrepton], for which the “scaled lipid accumulation score” value is active: 1.19.

Consider `CC(C)C[C@@H](/C=C/S(C)(=O)=O)NC(=O)[C@H](CC(C)C)NC(=O)[C@H](CC(C)C)NC(=O)OCc1ccccc1`, for which the “scaled lipid accumulation score” value (library stock concentration: 9.1 mM) was inactive: 0.738. Turning to `CCCc1nc(C(C)(C)O)c(C(=O)OCc2oc(=O)oc2C)n1Cc1ccc(-c2ccccc2-c2nnn[nH]2)cc1` [Olmesartan medoxomil], the “scaled lipid accumulation score” value runs as follows: (library stock concentration: 3.6 mM) inactive: ≤ 0; under setting [1], inactive: 0.287.

For the molecule `CCCc1nc(C(C)(C)O)c(C(=O)OCc2oc(=O)oc2C)n1Cc1ccc(-c2ccccc2-c2nnn[nH]2)cc1` [Olmesartan Medoxomil], the “scaled lipid accumulation score” value is, setting by setting: under setting [4], inactive: ≤ 0; under setting [1], inactive: ≤ 0. `CCCc1nc(C(C)(C)O)c(C(=O)OCc2oc(=O)oc2C)n1Cc1ccc(-c2ccccc2-c2nnn[nH]2)cc1`: the “scaled lipid accumulation score” value under setting [1] is inactive: ≤ 0.

Regarding `Cn1c(=O)c2c(ncn2CC(O)CO)n(C)c1=O` (stereo unspecified) [Diprophylline], the “scaled lipid accumulation score” value is inactive: ≤ 0.

Take `Cn1c(=O)c2c(ncn2CC(O)CO)n(C)c1=O` (stereo unspecified) [Dyphylline]: the “scaled lipid accumulation score” value under setting [4] is inactive: ≤ 0, the “scaled lipid accumulation score” value (library stock concentration: 7.9 mM) is inactive: 0.001 and the “scaled lipid accumulation score” value under setting [1] is inactive: ≤ 0. As to `Nc1nccs1` [Aminothiazole], the “scaled lipid accumulation score” value is, setting by setting: under setting [4], inactive: ≤ 0; under setting [1], inactive: ≤ -0.001 and inactive: ≤ -0.027. `NC(=O)c1cccnc1`: under setting [1], the “scaled lipid accumulation score” value is inactive: ≤ 0. With `NC(=O)c1cccnc1` [Nicotinamide (Vitamin B3)], the “scaled lipid accumulation score” value under setting [4] was inactive: ≤ 0 and the “scaled lipid accumulation score” value under setting [1] is inactive: ≤ 0. Take `NC(=O)c1cccnc1` [Niacinamide]: the “scaled lipid accumulation score” value (library stock concentration: 16.4 mM) was inactive: ≤ 0. In the case of `CCOC(=O)CCNc1cc(N2CCc3ccccc3CC2)nc(-c2ccccn2)n1`, the “scaled lipid accumulation score” value reads like this: under setting [5], inactive: ≤ 0; under setting [2], inactive: ≤ 0; under setting [3], inactive: ≤ 0; under setting [4], inactive: ≤ 0; under setting [1], inactive: 0.064 and inactive: ≤ 0.

`COc1ccc2[nH]c([S+]([O-])Cc3ncc(C)c(OC)c3C)nc2n1` (stereo unspecified) [Tenatoprazole]: the “scaled lipid accumulation score” value (library stock concentration: 5.8 mM) was inactive: 0.081. On to `Cc1cc(=O)oc2c(C=O)c(O)ccc12`, for which the “scaled lipid accumulation score” value is inactive: ≤ -0.009 under setting [4] and inactive: 0.302 under setting [1]. Consider `CN(C)CCOC(c1ccccc1)c1ccccc1`, for which the “scaled lipid accumulation score” value under setting [1] was inactive: 0.458. Take `CN(C)CCOC(c1ccccc1)c1ccccc1` [Diphenhydramine HCl]: the “scaled lipid accumulation score” value under setting [4] is inactive: 0.102, the “scaled lipid accumulation score” value (library stock concentration: 7.8 mM) was inactive: 0.192 and the “scaled lipid accumulation score” value under setting [1] is inactive: 0.084. Regarding `CN(C)CCOC(c1ccccc1)c1ccccc1` [Diphenhydramine hydrochloride], the “scaled lipid accumulation score” value is inactive: 0.459. Also, the “scaled lipid accumulation score” value (library stock concentration: 6.9 mM) is inactive: 0.166. For the same molecule, the “scaled lipid accumulation score” value under setting [1] is inactive: ≤ 0 and inactive: 0.31. On to `CN1CCCC(CC2c3ccccc3Sc3ccccc32)C1.Cl.O` (stereo unspecified) [Metixene hydrochloride], for which the “scaled lipid accumulation score” value was active: 1.12.
